The source of these data is a collection of fitness landscapes (doi:10.1038/s41467-024-54723-y).

Whole data set: some 18,000 sequences, median “TetR repression strength (sort-seq, GFP reporter)” near 0.23, cut for the highest 2% near 0.68. This is one part of the list.

Sequence of UniProt P04483 (P04483 whole entry): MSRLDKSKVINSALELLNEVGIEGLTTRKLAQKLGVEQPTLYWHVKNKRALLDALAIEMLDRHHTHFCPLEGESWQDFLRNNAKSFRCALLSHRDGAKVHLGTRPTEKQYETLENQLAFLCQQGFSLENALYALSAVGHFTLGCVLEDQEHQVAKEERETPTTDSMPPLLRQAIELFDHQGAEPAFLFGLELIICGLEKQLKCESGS

The experiment concerns the target TetR (class B, Tn10) (UniProt P04483). The experiment is described as follows: TetR repression strength (sort-seq, GFP reporter) (relative to tetO2 = 1); higher = stronger repression. The note with it: E. coli. The essentials:
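Three independent transformations of E. coli SIG10-MAX were made with a low-copy plasmid library randomizing eight operator positions between a constitutive promoter and sfGFP, with constitutive TetR. Following 5 h at 37 °C in LB plus 50 µg/mL chloramphenicol, 10^6 cells went through FACS into 13 fluorescence bins, and each bin was sequenced by Illumina. Repression strength was defined as the top bin index plus one minus the read-weighted mean bin, divided by the unaltered operator's value. Averages included only members reaching ≥30 reads in all replicates with a CV ≤0.5.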
For TCCCAGAGAGTACTGGAGA, the TetR repression strength was determined as 0.515.
The result for TCCCAGTCAGTTCGAGAGA reads 0.282.
The result for TCCCCAAGAGTCGATGAGA reads 0.238; that for TCCCCTGTAGTGGGGGAGA, 0.428.
With TCCCGGCAAGTATTCGAGA the figure was 0.211.
TCCCTGTTAGTTGGGGAGA displayed a TetR repression strength of 0.0518.
The result for TCCCGGGGAGTGCCTGAGA reads 0.195; that for TCCCGAGAAGTGCACGAGA, 0.104; that for TCCCGGCGAGTTGCGGAGA, 0.185.
Turning to TCCCACTCAGTAATTGAGA, the TetR repression strength was determined as 0.548.
With TCCCCAAGAGTCCTAGAGA the figure was 0.267.
The result for TCCCAGTTAGTGTTCGAGA reads 0.189.
With TCCCAGTTAGTCTGTGAGA the figure was 0.132; with TCCCCCTGAGTCGACGAGA, 0.607; with TCCCGGGGAGTCGCGGAGA, 0.362.
The sequence TCCCAAGAAGTACAGGAGA showed a TetR repression strength of 0.216.
As for TCCCTTGCAGTAGTGGAGA, the TetR repression strength was 0.591.
The result for TCCCTTACAGTCTCCGAGA reads 0.363.
Regarding TCCCGTATAGTACGAGAGA, the TetR repression strength came to 0.373.
TCCCCGGCAGTTTGGGAGA came in with a TetR repression strength of 0.322.
Regarding TCCCGGGGAGTGCGAGAGA, the TetR repression strength was 0.201.
For TCCCCATGAGTTGGCGAGA, the TetR repression strength was determined as 0.123.
The result for TCCCTTGGAGTCTCCGAGA reads 0.261; that for TCCCCAGGAGTAGACGAGA, 0.268.
The result for TCCCGCGTAGTGACAGAGA reads 0.255; that for TCCCACTAAGTAATGGAGA, 0.358.
With TCCCGTCCAGTTGGCGAGA the figure was 0.183; with TCCCAGCAAGTGGACGAGA, 0.239; with TCCCTGTAAGTCGCTGAGA, 0.465.
TCCCTCCTAGTCTCCGAGA registered a TetR repression strength of 0.394.
The result for TCCCTAGTAGTGAGAGAGA reads 0.351; that for TCCCAAATAGTTCTTGAGA, 0.407.
With TCCCTGACAGTGGTAGAGA the figure was 0.155.
The result for TCCCGGATAGTTTCGGAGA reads 0.283; that for TCCCATTTAGTACACGAGA, 0.289; that for TCCCGCATAGTTAGTGAGA, 0.129.
TCCCGCGGAGTTAGAGAGA displayed a TetR repression strength of 0.295.
The result for TCCCTACGAGTTTTTGAGA reads 0.197; that for TCCCTGACAGTGTTGGAGA, 0.215.
With TCCCTCTCAGTGTATGAGA the figure was 0.235; with TCCCAGTGAGTGAGCGAGA, 0.127.
The result for TCCCCGTGAGTCCTTGAGA reads 0.426.
As for TCCCGTCGAGTATCTGAGA, the TetR repression strength is 0.339.
TCCCTTTTAGTCATTGAGA: the TetR repression strength came out at 0.25.
TCCCCCCGAGTAACCGAGA displayed a TetR repression strength of 0.311.
The result for TCCCTAATAGTCTGGGAGA reads 0.274; that for TCCCGGCGAGTGTATGAGA, 0.437; that for TCCCGTGGAGTGTGCGAGA, 0.101.
The result for TCCCAGCTAGTGGCAGAGA reads 0.571.
Sequence TCCCTTATAGTCTCGGAGA registered a TetR repression strength of 0.214.
TCCCGTCTAGTTTGCGAGA registered a TetR repression strength of 0.277.
TCCCGCCGAGTAGACGAGA gave a TetR repression strength of 0.0297.
On to TCCCGAGGAGTGGGAGAGA, for which the TetR repression strength was found to be 0.163.
With TCCCTTAGAGTAGCGGAGA the figure was 0.587.
With TCCCGAAAAGTGCCTGAGA the figure was 0.172; with TCCCGGCCAGTAAAGGAGA, 0.0748.
The result for TCCCGGGGAGTCGATGAGA reads 0.201; that for TCCCGAGGAGTCCCAGAGA, 0.428.
Regarding TCCCTCTGAGTGGACGAGA, the TetR repression strength was 0.0822.
With TCCCCCTAAGTACGGGAGA the figure was 0.103; with TCCCTAGCAGTACGGGAGA, 0.0666; with TCCCATGGAGTACTAGAGA, 0.166.
Regarding TCCCTTGCAGTTGATGAGA, the TetR repression strength stood at 0.274.
With TCCCCTTGAGTCTGAGAGA the figure was 0.333; with TCCCAGTCAGTTAAGGAGA, 0.273; with TCCCCAATAGTACTGGAGA, 0.18.
With TCCCATCAAGTCGATGAGA the figure was 0.153; with TCCCTGGAAGTCAGAGAGA, 0.0274; with TCCCGACGAGTAGGTGAGA, 0.187.
With TCCCCACGAGTTGCAGAGA the figure was 0.3; with TCCCTGCTAGTCACGGAGA, 0.
As to TCCCCCGGAGTAAGGGAGA, the TetR repression strength was determined as 0.239.
With TCCCGACCAGTCTTGGAGA the figure was 0.31.
The result for TCCCCTGCAGTGCGAGAGA reads 0.0342.
With TCCCGTAGAGTCGCGGAGA the figure was 0.241; with TCCCCGTAAGTGGAGGAGA, 0.0301.
Sequence TCCCTAAAAGTCTAAGAGA displayed a TetR repression strength of 0.29.
Turning to TCCCATCTAGTAATGGAGA, the TetR repression strength amounted to 0.439.
With TCCCACGTAGTTACGGAGA the figure was 0.305; with TCCCATGGAGTATAGGAGA, 0.309.
The result for TCCCGGGGAGTGTTGGAGA reads 0.415; that for TCCCTACGAGTATCAGAGA, 0.311; that for TCCCGCTGAGTGGCTGAGA, 0.167.
The result for TCCCGATGAGTGGGAGAGA reads 0.316.
Sequence TCCCATTCAGTCCGCGAGA had a TetR repression strength of 0.259.
The result for TCCCGGTCAGTTTTGGAGA reads 0.169.
The result for TCCCAGGGAGTTACAGAGA reads 0.167; that for TCCCTTCGAGTGGCGGAGA, 0.391; that for TCCCAGACAGTTATGGAGA, 0.208.
With TCCCCTAGAGTAGCCGAGA the figure was 0.392; with TCCCTGAGAGTCGTGGAGA, 0.239.
Take TCCCGGGAAGTACTAGAGA: the TetR repression strength was determined as 0.161.
On to TCCCCTTTAGTCGGGGAGA, for which the TetR repression strength was determined as 0.151.
TCCCGTGTAGTCCTGGAGA registered a TetR repression strength of 0.187.
The result for TCCCGGCCAGTCCAGGAGA reads 0.219; that for TCCCATAAAGTCAGGGAGA, 0.158; that for TCCCCACGAGTGTTTGAGA, 0.514.
With TCCCTATTAGTGAGCGAGA the figure was 0.346; with TCCCGCTGAGTGCAAGAGA, 0.408; with TCCCGGTTAGTTACGGAGA, 0.211.
With TCCCCGGTAGTCCAGGAGA the figure was 0.393; with TCCCATGGAGTGCCCGAGA, 0.353; with TCCCGGAAAGTTGTGGAGA, 0.275.
With TCCCTGTAAGTTAACGAGA, the TetR repression strength is 0.194.
With TCCCTTTTAGTAGAGGAGA the figure was 0.173; with TCCCACCAAGTGGGAGAGA, 0.111; with TCCCCTGGAGTCAGTGAGA, 0.18.
The result for TCCCCGGTAGTGTTTGAGA reads 0.235; that for TCCCGGTCAGTTGGTGAGA, 0.254.
With TCCCGTATAGTGGACGAGA, the TetR repression strength came out at 0.0457.
In the case of TCCCGGGGAGTGTGCGAGA, the TetR repression strength is 0.126.
With TCCCATAGAGTAATGGAGA the figure was 0.303; with TCCCCTCTAGTAGTGGAGA, 0.129; with TCCCGCAGAGTGGCGGAGA, 0.117.
With TCCCGGGAAGTTAAAGAGA the figure was 0.0494; with TCCCACCAAGTGGGTGAGA, 0.139; with TCCCGGTAAGTGGCGGAGA, 0.184.
With TCCCTATAAGTGCATGAGA the figure was 0.588; with TCCCCGTCAGTAGCCGAGA, 0.303.
Take TCCCGCAGAGTGGGAGAGA: the TetR repression strength worked out at 0.131.
The result for TCCCATGGAGTGGCAGAGA reads 0.208; that for TCCCTGCCAGTGGATGAGA, 0.336.
The result for TCCCAGACAGTCGGGGAGA reads 0.182.
With TCCCGTACAGTGTTGGAGA the figure was 0.427; with TCCCGAATAGTCGAAGAGA, 0.162; with TCCCGTAGAGTTGGTGAGA, 0.278.
Consider TCCCGTTGAGTCACGGAGA, for which the TetR repression strength worked out at 0.106.
With TCCCGGAGAGTGGCCGAGA the figure was 0.209; with TCCCGCACAGTTCCGGAGA, 0.2.
The result for TCCCACTAAGTGGCAGAGA reads 0.24.
